Over roughly 110,000 compounds, “z-score” has its median near -0.1; the highest 2% begin near 2. Some of the results follow.

The assay addresses Metabotropic glutamate receptor 8 (Rattus norvegicus) (UniProt P70579). Briefly: rat mGluR8 modulators via GIRK flux, primary screen, cell-based, thallium flux, HTS (AID 488969). As to conditions: HEK293 rat mGluR8, GIRK (G protein-gated inwardly rectifying potassium channel) thallium flux, FluoZin2; at 10 µM; stronger effect = higher value; submaximal glutamate (EC20) added with thallium.
Sequence of UniProt P70579 (P70579 whole entry, looked up): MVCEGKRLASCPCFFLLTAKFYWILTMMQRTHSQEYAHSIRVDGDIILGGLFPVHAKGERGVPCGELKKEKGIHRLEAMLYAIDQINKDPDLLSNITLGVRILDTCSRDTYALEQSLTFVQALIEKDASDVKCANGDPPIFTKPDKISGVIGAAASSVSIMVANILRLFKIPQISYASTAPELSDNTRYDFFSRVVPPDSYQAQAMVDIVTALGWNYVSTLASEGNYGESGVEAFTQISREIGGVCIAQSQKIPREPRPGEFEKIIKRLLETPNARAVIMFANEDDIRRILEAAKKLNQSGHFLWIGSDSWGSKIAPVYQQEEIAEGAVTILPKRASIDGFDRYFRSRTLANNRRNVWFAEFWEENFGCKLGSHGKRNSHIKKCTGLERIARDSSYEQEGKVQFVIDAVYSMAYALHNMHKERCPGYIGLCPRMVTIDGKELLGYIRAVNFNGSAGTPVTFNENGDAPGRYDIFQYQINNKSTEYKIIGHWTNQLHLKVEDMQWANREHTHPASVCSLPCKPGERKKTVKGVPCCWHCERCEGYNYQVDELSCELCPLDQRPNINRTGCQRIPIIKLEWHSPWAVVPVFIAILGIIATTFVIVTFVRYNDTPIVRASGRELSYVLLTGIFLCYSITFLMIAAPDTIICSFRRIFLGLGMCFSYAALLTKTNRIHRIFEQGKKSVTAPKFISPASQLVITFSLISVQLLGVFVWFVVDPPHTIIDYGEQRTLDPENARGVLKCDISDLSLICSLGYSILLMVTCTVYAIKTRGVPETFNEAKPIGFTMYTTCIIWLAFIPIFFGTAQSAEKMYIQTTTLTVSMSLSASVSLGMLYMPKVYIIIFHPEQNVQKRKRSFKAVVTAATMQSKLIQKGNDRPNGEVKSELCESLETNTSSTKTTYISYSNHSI
The compound `c1ccc(-n2c(-c3ccco3)nnc2-c2ccco2)cc1` yielded a z-score of -0.236.

`C#CCSc1nc(Cc2ccc(Cl)cc2)nc2ccccc12`: the z-score turned out to be 0.192.

In turn, `CCn1c(C)nc2cc(C(=O)NNS(=O)(=O)c3ccccc3F)ccc21` displayed a z-score of -0.0906.

Regarding `CC(C)NC(=O)NC(=O)CSc1ccccc1F`, the z-score was -0.389.

In the case of `COc1ccc(Cn2c(=O)sc3ccccc32)cc1OC`, the z-score worked out at 0.671.

`O=C(COc1ccc(Cl)cc1)Nc1ccc(C(=O)NCc2cccnc2)cc1` showed a z-score of 0.0017.

Compound `COc1cccc(OC)c1C(=O)N1CCN(Cc2ccccc2C)CC1` gave a z-score of -0.301.

`Cc1nc2ccc(F)cc2cc1C(=O)NCC1CCCO1` (configuration not stated) gave a z-score of 0.0248.

`CCOC(=O)c1[nH]c(C)c(C(=O)NCCC2=CCCCC2)c1C` showed a z-score of 0.232.

In turn, `O=c1oc2c(Cl)cc(Cl)cc2cc1-c1nnc(Nc2ccccc2F)s1` had a z-score of 1.37.

In the case of `O=C(O)c1cc([N+](=O)[O-])ccc1NCCO`, the z-score is -0.0386.

For `O=S(=O)(Cc1ccccc1)N1CCn2c(nc3ccccc32)C1`, the z-score was -0.011.

`COc1cc(S(=O)(=O)Nc2cccc(C)c2)ccc1NC(=O)c1cccnc1` came in with a z-score of -0.162.

Regarding `CC(=O)Nc1ccc(Cl)c(C(N)=O)c1`, the z-score stood at 0.465.

In the case of `COc1ccc(/C=N/OCC(=O)N2CC3(C)CC2CC(C)(C)C3)cc1OC` (configuration not stated), the z-score was -0.15.

`CC(C)N(C(=O)C(=O)c1cccn1-c1ccccc1C#N)C(C)C`: the z-score is -0.388.

Consider `COc1ccc(C(N)=O)cc1NC(=O)CC(O)(C(F)(F)F)C(F)(F)F`, for which the z-score came to 0.121.

As for `Cc1onc(-c2c(F)cccc2Cl)c1C(=O)N1CCN(S(C)(=O)=O)CC1`, the z-score was 0.0327.

In turn, `CCCn1nnc(NC(=O)c2ccc(Br)o2)n1` showed a z-score of 0.168.

`COc1cccc(OCC(O)CN2CCC(C)CC2)c1` (configuration not stated) yielded a z-score of 0.67.

In the case of `CC1CCN(c2nc3c(c(=O)n(C)c(=O)n3C)n2Cc2ccccc2)CC1`, the z-score is -0.782.

The compound `O=C(Cn1cnc2c(nnn2Cc2ccc(Cl)cc2)c1=O)N1CCCc2ccccc21` came in with a z-score of 0.0655.

In turn, `CC1CC(C)CN(C2CCN(Cc3cccnc3)CC2)C1` (configuration not stated) yielded a z-score of -0.0754.

For the compound `CC1=CCC(C(=O)O)(C(=O)N/N=C/c2cccs2)C(c2ccc(Cl)cc2)C1` (configuration not stated), the z-score was -0.83.

`CN(C(=O)COc1ccc(C(C)(C)C)cc1)C1CCS(=O)(=O)C1` (configuration not stated): the z-score was 0.162.

Turning to `O=C(OCn1ncc(Cl)c(Cl)c1=O)c1ccccc1Cl`, the z-score is -1.56.

`COc1cccc(NC(=O)c2nn(C34CC5CC(CC(C5)C3)C4)cc2[N+](=O)[O-])c1` showed a z-score of -0.196.

As for `COCCNCCCOc1ccc(C(C)(C)c2ccccc2)cc1`, the z-score was found to be 0.645.

`CCOc1cc(N2CCOCC2)c(OCC)cc1NC(C)C(=O)N1CCC(C)CC1` (configuration not stated) displayed a z-score of -0.233.

For `Cc1ccc(C)c(CSC2=NCCN2C(=O)Cc2ccc([N+](=O)[O-])cc2)c1`, the z-score amounted to 0.0861.

In the case of `O=C(OCc1nc2ccccc2s1)c1cccs1`, the z-score was 0.852.

Take `CCC(=O)n1nc(-c2ccc(Cl)cc2)nc1SC`: the z-score is -0.569.

The record behind these values is PubChem BioAssay AID488969 (Vanderbilt High Throughput Screening Facility, 2010).
